From PubChem BioAssay AID360 (National Center for Advancing Translational Sciences (NCATS), 2006) come the findings set out here.

Among all 48,000 compounds or so, about 550 (1.1%) were called active. Another 4% or so got no clear call; they are omitted. Cut-off read from the data, not from the text of the source: active = potency below about 15 µM; inconclusive = mostly about 16 µM to 33 µM; inactive = weaker than that. The list shows a part of the results.
Potency is the fitted concentration of half-maximal effect.

UniProt P04062, sequence (P04062 whole entry, looked up): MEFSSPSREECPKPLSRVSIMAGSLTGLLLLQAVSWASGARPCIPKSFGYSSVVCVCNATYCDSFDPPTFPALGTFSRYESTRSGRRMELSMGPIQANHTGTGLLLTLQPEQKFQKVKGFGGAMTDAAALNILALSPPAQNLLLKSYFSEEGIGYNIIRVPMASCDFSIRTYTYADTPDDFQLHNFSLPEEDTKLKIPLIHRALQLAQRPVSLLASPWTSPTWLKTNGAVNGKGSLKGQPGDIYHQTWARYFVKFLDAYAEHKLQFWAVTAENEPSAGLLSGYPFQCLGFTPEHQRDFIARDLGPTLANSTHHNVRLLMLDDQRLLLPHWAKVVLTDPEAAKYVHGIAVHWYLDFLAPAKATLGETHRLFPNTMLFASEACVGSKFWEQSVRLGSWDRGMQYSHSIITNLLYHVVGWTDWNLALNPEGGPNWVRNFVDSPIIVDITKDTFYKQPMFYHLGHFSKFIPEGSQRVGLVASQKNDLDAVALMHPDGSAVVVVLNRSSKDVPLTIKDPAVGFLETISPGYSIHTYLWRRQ

For this assay, the target named is Lysosomal acid glucosylceramidase (Homo sapiens) (UniProt P04062). As to the kind of experiment: Glucocerebrosidase.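 Note: the screen sought inhibitors.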 The conditions noted are these: purified enzyme, resorufin glucoside fluorescence (screen aimed at inhibitors), 20 min. Summed up:
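Compounds titrated against 0.2 nM normal enzyme, 30 uM resorufin beta-D-glucopyranoside substrate, citrate/phosphate buffer with taurocholate and tween-20, pH 5.9. Reaction ran 20 min at room temperature; fluorescence (Ex 548/Em 600) gave AC50.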
In the case of `CCN1CCN(c2ncc(C(=O)N3CCN(c4ccccc4OC)CC3)c3ccccc23)CC1`, the Potency entry is “inactive”. For `CCOC(=O)CSc1nnc(Cc2ccccc2)n1CC1CCCO1` (stereo not given), the Potency was inactive: > 76.9 µM. Regarding `Cc1ccc(CN2C(=O)CCC2C(=O)NCCCN2CCCC(C)C2)cc1` (stereo not given), the Potency is inactive: > 76.9 µM. Turning to `C1CCN(c2nc(N3CCCCC3)nc(N3CCNCC3)n2)CC1`, the Potency is inactive: > 76.9 µM. On to `O=C(NCC1CCCO1)C1CCN(S(=O)(=O)N2CCCC2)CC1` (stereo not given), for which the Potency was inactive: > 76.9 µM. As for `Cc1cccc(N2CCN(C(=O)C3CCN(S(=O)(=O)c4cnc[nH]4)CC3)CC2)c1C`, the Potency is inactive: > 76.9 µM. As for `CCC(C)(C)NC(=O)C(c1ccc(F)cc1)N(Cc1ccco1)C(=O)c1snc(C(N)=O)c1N` (stereo not given), the figure is inactive: > 76.9 µM. Take `Cc1nnc(NC(=O)CCC(=O)NCc2ccco2)s1`: the Potency is inactive: > 76.9 µM. Regarding `Cc1ccc2c(c1)N(CC(=O)N1CCCCCC1)C(=O)CO2`, the Potency is inactive: > 76.9 µM. `CC(C)Cc1nc2oc3c(NCc4cccnc4)ncnc3c2c2c1CCC2`: the Potency was inactive: > 76.9 µM. On to `CCOc1cc(S(=O)(=O)Nc2ccc(Cl)cn2)ccc1F`, for which the Potency was inactive: > 76.9 µM. As for `O=C(O)CC1(c2ccccc2)C(=O)c2ccccc2C1=O`, the figure is inactive: > 76.9 µM. Take `COc1ccc(CN2CC(C(=O)NCCCN3CCCCCC3)CC2=O)cc1` (stereo not given): the Potency was inactive: > 76.9 µM. Turning to `O=C(O)c1ccc(Cn2cc(Cl)cn2)cc1`, the Potency is inactive: > 76.9 µM. As to `CCOC(=O)c1cn(CC(=O)Nc2ccc(CC)cc2)nn1`, the Potency was inactive: > 76.9 µM. For `c1ccc(-n2c(-c3ccncc3)nnc2-c2ccco2)cc1`, the Potency is inactive: > 76.9 µM.

For `COC(=O)[C@H](C)NC(=O)Nc1ccc(OC(F)(F)F)cc1`, the Potency is inactive: > 76.9 µM. Consider `COCc1nc(-c2ccc(-c3ccc(C)cc3)nc2OC)no1`, for which the Potency is inactive: > 76.9 µM. Regarding `Cc1cccc(-n2c(C)nc3c(cnn3-c3ccc(F)cc3)c2=O)c1`, the Potency is inactive: > 76.9 µM. For `Cc1nnc(SCC(=O)Nn2cnnc2)s1`, the Potency was inactive: > 76.9 µM. As to `CC(=O)N(CN1C(=O)c2ccccc2C1=O)c1ccccc1`, the Potency is inactive: > 76.9 µM. The figure for `O=C(Nc1nnc(SCc2ccc(F)cc2)s1)c1ccco1` is inactive: > 76.9 µM; for `COc1ccccc1NC(=O)Cn1nnc(-c2ccccc2NC(=O)c2cccs2)n1` it is inactive: > 76.9 µM. As for `COC(=O)c1ccccc1NC(=O)Cn1cnc2ccc(S(=O)(=O)N3CCC(C)CC3)cc2c1=O`, the Potency is inactive: > 76.9 µM.

For the molecule `CCOC(=O)c1ccc(NS(=O)(=O)c2cccc3nsnc23)cc1`, the Potency is inactive: > 76.9 µM.

As for `CCCc1nnc(SCc2ccc(C(=O)OC)o2)n1N`, the Potency is inactive: > 76.9 µM.

In the case of `O=C(Nc1ccccc1C(=O)N1CCCCCC1)c1cccc(S(=O)(=O)N2CCOCC2)c1`, the Potency is inactive: > 76.9 µM.

With `COc1ccc2nc(C)cc(N3CCOCC3)c2c1`, the Potency is inactive: > 76.9 µM. On to `N#Cc1ccc(Cn2c(=O)c(C#N)c3n(c2=O)CCC3)cc1`, for which the Potency is inactive: > 76.9 µM. Consider `CCS(=O)(=O)N1CCC(c2nc(-c3ccc(C)cc3)no2)CC1`, for which the Potency was inactive: > 76.9 µM.

Consider `c1ccc(-c2nc3cc(Cc4ccc5oc(-c6ccccn6)nc5c4)ccc3o2)nc1`, for which the Potency was inactive: > 76.9 µM.

Regarding `CC1(C)CC2CC(C)(CN2C(=O)COC(=O)c2ccc(Cl)cc2N)C1` (stereo not given), the Potency was inactive: > 76.9 µM.

Take `Cc1cnc(C(=O)Nc2cccc3ncccc23)cn1`: the Potency is inactive: > 76.9 µM. Turning to `CCCCn1c(NC(=O)c2ccccc2Cl)c(C#N)c2nc3ccccc3nc21`, the Potency was inactive: > 76.9 µM. In the case of `Cc1csc(NC(=O)CSc2ncnc3c2cnn3-c2ccccc2Cl)n1`, the Potency is inactive: > 76.9 µM. On to `O=C1NCCN1C(=O)C12CC3CC(CC(C3)C1)C2`, for which the Potency was inactive: > 76.9 µM.

`CCOc1cc2[nH]c(=S)n(CC3CCCN3CC)c(=O)c2cc1OCC` (stereo not given): the Potency is inactive: > 76.9 µM.

As to `CCn1c(SCC(=O)c2cccs2)nnc1-c1ccco1`, the Potency is inactive: > 76.9 µM. In the case of `CN(CCNC(=O)CN1CCN(Cc2ccccc2Cl)C1=O)Cc1ccccc1`, the Potency was inactive: > 76.9 µM. As to `Cc1nn(-c2ccccc2)c2[nH]c(=O)c(CNc3ccc4c(c3)OCCO4)cc12`, the Potency is inactive: > 76.9 µM.

For `CC1CCCCN1C(=O)CSc1nc2ccsc2c(=O)n1Cc1ccccn1` (stereo not given), the Potency is inactive: > 76.9 µM. With `COc1ccc(S(=O)(=O)Nc2cc(OC)c(NC(=O)c3ccco3)cc2OC)cc1`, the Potency was inactive: > 76.9 µM. Regarding `CN1CCN(S(=O)(=O)c2ccc(NC(=O)c3ccco3)cc2)CC1`, the Potency is inactive: > 76.9 µM. For the molecule `O=S(=O)(c1ccc(OCC(O)CN2CCN(c3ccccc3)CC2)cc1)N1CCOCC1` (stereo not given), the Potency is inactive: > 76.9 µM. On to `Cc1ccc2nc(SCC(=O)N3CCCC3)[nH]c2c1`, for which the Potency is inactive: > 76.9 µM. With `CCOC(=O)C1CCCN(c2ncnc3c2[nH]c2cccc(OC)c23)C1` (stereo not given), the Potency was inactive: > 76.9 µM. Regarding `COC(=O)C(O)(CC(=O)Nc1ccc(Cl)cc1F)C(F)(F)F` (stereo not given), the Potency is inactive: > 76.9 µM. With `COc1ccc(CCC(=O)N2CC(C)OC(C)C2)cc1` (stereo not given), the Potency was inactive: > 76.9 µM. Turning to `COc1ccc(CCNC(=O)C2CCN(S(=O)(=O)c3cccc4nsnc34)CC2)cc1OC`, the Potency was inactive: > 76.9 µM. As for `CCN(CC)S(=O)(=O)c1ccc(-c2nnc(SCc3nnc(-c4ccc(C)cc4)o3)o2)cc1`, the figure is inactive: > 76.9 µM; as for `CCc1ccc(N2CC(C(=O)OCC(=O)NC3CCS(=O)(=O)C3)CC2=O)cc1` (stereo not given), inactive: > 76.9 µM. As for `COCCOC(=O)c1c(C)n(C)c2ccc(OC(=O)N3CCOCC3)cc12`, the figure is inactive: > 76.9 µM.

As for `CCOc1ccc2sc(NS(=O)(=O)c3ccc(OC)c(OC)c3)nc2c1`, the Potency is inactive: > 76.9 µM. Take `COc1cc(NS(=O)(=O)c2ccc(NC(=O)C3CCCO3)cc2)nc(OC)n1` (stereo not given): the Potency is inactive: > 76.9 µM. With `CN1C(=O)C(O)(CC(=O)c2cccc(-n3cccc3)c2)c2ccccc21` (stereo not given), the Potency was inactive: > 76.9 µM. In the case of `Cc1cc(C)n2nc(-c3cccnc3)nc2n1`, the Potency was inactive: > 76.9 µM. As for `N#C/C=C1/NC(=O)c2ccccc2S1`, the figure is inactive: > 76.9 µM; as for `CC(C)CCNC(=O)CN(CC1CCCO1)C(=O)CCC(=O)Nc1nccs1` (stereo not given), inactive: > 76.9 µM; as for `COc1ccc(OC)c(C2=NOC(C(=O)Nc3cccc(C(C)=O)c3)C2)c1` (stereo not given), inactive: > 76.9 µM. Regarding `O=C(Cc1c(F)cccc1Cl)N1CCCC1`, the Potency was inactive: > 76.9 µM. Turning to `NC(=O)C1CCN(c2ncnc3c(-c4ccccc4)nsc23)CC1`, the Potency was inactive: > 76.9 µM. As to `COc1ccccc1OCCCn1c(=O)sc2ccccc21`, the Potency is inactive: > 76.9 µM.

With `Cc1[nH]c(=S)n(CC2CCCO2)c1C` (stereo not given), the Potency is inactive: > 76.9 µM. In the case of `CCOC(=O)c1cc(S(=O)(=O)N2CCN(C(=O)OCC)CC2)cn1C`, the Potency is inactive: > 76.9 µM. As for `COc1ccc(C)cc1N(CC(=O)O)S(=O)(=O)c1ccc(C)cc1`, the Potency is inactive: > 76.9 µM. As for `O=S1(=O)N=C(N2CCN(Cc3ccc4c(c3)OCO4)CC2)c2ccccc21`, the Potency was inactive: > 76.9 µM. As to `Cc1onc(-c2c(F)cccc2Cl)c1C(=O)Nc1cccc2nsnc12`, the Potency was inactive: > 76.9 µM. As for `Cc1sc2ncnc(-n3cnc4ccccc43)c2c1C`, the Potency is inactive: > 76.9 µM.

`Cc1ccc(S(=O)(=O)Nc2cc(NC(=O)CN3CCOCC3)ccc2Cl)cc1`: the Potency was inactive: > 76.9 µM. Take `Cc1ccccc1-c1noc(-c2ccccc2C(=O)N2CCCC2)n1`: the Potency was inactive: > 76.9 µM. As to `CCOC(=O)c1cnc(-n2nc(C)cc2C)nc1NC`, the Potency was inactive: > 76.9 µM. As to `Cn1c(=O)c2c(ncn2CC(=O)OCc2ccccc2)n(C)c1=O`, the Potency was inactive: > 76.9 µM.

For the molecule `CC(C)NC(=O)N(O)C1N(Cc2ccc3c(c2)OCO3)C(=S)SC1(C)C` (stereo not given), the Potency was inactive: > 76.9 µM. `CCOC(=O)C1=C(C)NC(C)=C(C(=O)OCC)C1C1=COCCO1`: the Potency is inactive: > 76.9 µM.

Regarding `Oc1ccccc1-c1nc(NCC2CCCO2)c2ccccc2n1` (stereo not given), the Potency was inactive: > 76.9 µM. With `CCN1CCN(C(=O)c2nn(-c3ccc(OC)cc3)c(=O)c3c2c2ccccc2n3C)CC1`, the Potency is inactive: > 76.9 µM. The figure for `O=C(CSc1nnc(-c2cccs2)n1-c1ccccc1)NCc1ccc2c(c1)OCO2` is inactive: > 76.9 µM; for `Cc1ccccc1Cn1ccc(NC(=O)c2cnn3cccnc23)n1` it is inactive: > 76.9 µM. Regarding `CCc1ccc(-c2nc(CN3CCC(C(=O)NCCN(CC)c4ccccc4)CC3)c(C)o2)cc1`, the Potency result is “inactive”. As for `Clc1ccc(NCc2nncn2-c2ccccc2)cc1`, the Potency is inactive: > 76.9 µM. Consider `CCCCCCN=C(C)C1=C(O)C(C(=O)OC)C(C)(C)CC1=O` (stereo not given), for which the Potency was inactive: > 76.9 µM. `Clc1ccccc1COc1ccccc1-c1nnco1`: the Potency was inactive: > 76.9 µM.

As for `O=C(CSc1ccc(-c2ccccc2)nn1)N1CCOCC1`, the Potency was inactive: > 76.9 µM. As for `O=C(C1CSC2(c3ccc(F)cc3)CCC(=O)N12)N1CCCCCC1` (stereo not given), the figure is inactive: > 76.9 µM. `CCOC(=O)CNC(=O)C(NC(=O)C1CCC(C)CC1)C(C)CC` (stereo not given): the Potency was inactive: > 76.9 µM.

On to `O=C(CCC1COc2ccccc2O1)Nc1ccc(Cl)cn1` (stereo not given), for which the Potency is inactive: > 76.9 µM.

Take `O=C(Nc1cc(C(F)(F)F)ccc1N1CCOCC1)C1Cc2ccccc2CN1C(=O)c1ccco1` (stereo not given): the Potency was inactive: > 76.9 µM. `CCOC(=O)c1c(C)c(C(=O)Nc2ccc3c(c2)OCCO3)c(C)n1CC`: the Potency was inactive: > 76.9 µM. The figure for `CCOC(=O)c1ccc(NC(=O)Cn2cccc2)cc1` is inactive: > 76.9 µM; for `CCOCCCNC(=O)C(NC(=O)C1CCC(=O)N1)c1ccc(C)cc1` (stereo not given) it is inactive: > 76.9 µM.
